# Test results: PubChem BioAssay AID1240 (Sanford-Burnham Center for Chemical Genomics, 2008)
# Out of some 50,000 compounds screened, about 800 (1.6%) showed an effect of 50% or more. The list shows a part of the results.
# Target: Bcl-2-like protein 10 (Homo sapiens) (UniProt Q9HD36)
# Assay: TR3 peptide-Bcl-B binding displacers, biochemical primary FP assay, phenotype converters (AID 1240);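 further: 0% = Bcl-B with tracer peptide and DMSO and 100% = tracer peptide lacking Bcl-B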
# Conditions: GST-Bcl-B / FITC-TR3 peptide fluorescence polarization; stronger effect = higher value; compound at 3.75 mg/L
# Sequence of UniProt Q9HD36 (Q9HD36 whole entry, looked up): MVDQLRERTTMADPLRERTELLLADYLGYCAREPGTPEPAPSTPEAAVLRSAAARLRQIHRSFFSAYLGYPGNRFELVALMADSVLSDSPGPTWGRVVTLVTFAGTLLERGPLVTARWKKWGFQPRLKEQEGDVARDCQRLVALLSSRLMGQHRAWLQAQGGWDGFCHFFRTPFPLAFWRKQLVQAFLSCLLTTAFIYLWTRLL
row,Compound,displacement [%]
1,C/C(=N\Nc1cc(-c2ccccc2)nc(C)n1)c1ccc(O)cc1,-7.7
2,C=CCOc1ccc(/C=N/NC(=O)C(=O)NCc2ccccn2)cc1,-5.5
3,COc1ccccc1C/C(N)=N/OC(=O)c1ccco1,-2.3
4,O=c1c(Cl)c(Cl)cnn1Cc1ccc(Br)cc1,-7.5
5,O=C(Nc1ccc(Cl)cc1)/C(=C\c1cccnc1)NC(=O)c1ccccc1,-0.3
6,S=c1[nH]c2ccccc2n1CCOc1ccc(Cl)cc1,-7
7,C/C(=N\NC(=O)c1n[nH]c2c1CCC2)c1ccc(N)cc1,-7.4
8,Cc1ccc(N2C(=O)C3C4C=CC(C5CC45)C3C2=O)cc1C (centres undefined),-17
9,COc1ccc(C(C)=O)c2c(O)cccc12,-1.8
10,COc1ccc(/C=C2\SC(=NCc3ccccc3)N(Cc3ccccc3)C2=O)cc1OC,7.1
11,Cc1ccc(C2=NN(C(=N)SC3CC(=O)N(c4ccc(F)cc4)C3=O)C(c3ccc(Br)cc3)C2)cc1 (centres undefined),-1.3
12,O=C(Nc1ccc([N+](=O)[O-])cc1)c1cc(Br)ccc1Cl,-5.9
13,Cc1ccc(OCC(=O)NNC(=O)COc2ccccc2)cc1,11.1
14,CCC(=O)Nc1nc(-c2ccccc2)nc(C)c1C(C)=O,-15.4
15,COc1ccccc1/C=N/N=C1/NC(=O)C(CC(=O)Nc2cccc(C(C)=O)c2)S1 (centres undefined),0.6
16,CN1C(=O)/C(=C/c2c(Cl)cccc2Cl)SC1=S,18.4
17,CCOc1ccc(N2C(=O)c3ccccc3NC2c2ccc(Br)cc2)cc1 (centres undefined),6.5
18,CS(=O)(=O)N1CCN(c2ccc([N+](=O)[O-])c(Sc3cccc4cccnc34)c2)CC1,5.9
19,CCOC(=O)C(C(C)=O)C1=C(c2ccc([N+](=O)[O-])cc2)C(=O)c2ccccc2C1=O (centres undefined),-21
20,CCOC(=O)C1=NNC2C(=O)N(c3ccc(Cl)cc3Cl)C(=O)C12 (centres undefined),2.3
21,COc1ccc(OC)c(/C=C2\SC(N3CCCCCC3)=NC2=O)c1,-9.2
22,Cc1ccc(/C=N/NC(=O)C2CC(=O)N(c3ccc(Cl)cc3)C2)cc1 (centres undefined),-6.2
23,C=CCSc1nc(N)c2c3c(sc2n1)CCCC3,-8
24,Cc1ccc(N2C(=O)S/C(=C/c3ccc4c(c3)OCO4)C2=O)cc1,13.8
25,CCC1=NN(C(=O)c2cccc(Br)c2)C(O)(c2ccc(C)cc2)C1 (centres undefined),6.7
26,O=C(Oc1ccc(/C=c2/sc3nc4ccccc4n3c2=O)cc1)c1ccc(Br)cc1,-7.2
27,COc1ccc2c(c1)OCC/C2=N\OC(=O)c1cccc2ccccc12,-11.3
28,COc1ccc(CN(C(=O)c2cccc(F)c2)C2CC(=O)N(c3ccccc3)C2=O)cc1 (centres undefined),-8
29,COc1cc(/C=C2/SC(=Nc3ccccc3Cl)NC2=O)ccc1OC(=O)c1ccccc1,-16
